Among all 2,100 compounds or so, about 320 (15%) were called active. Inconclusive results, whose numbers are uncertain, are shown with a selection of clear calls. The call rests on the fitted dose curve; in most records, active means well fitted cell-killing curve with a large enough effect; inconclusive means small, poorly fitted or top-dose-only effect, or effect the other way; inactive means flat fitted curve, though single readings scatter. Potencies beside an inconclusive call are fits to weak or partial responses and may not hold up.
assay: Viability Counterscreen for CMV-Luciferase Assay of Inhibitors of ATXN expression; conditions: HEK-293 CMV-luciferase cells viability, protease fluorescence, 24 h; activity change, negative = cytotoxicity: at the top concentration; further: nearly all actives have a fitted effect of over 55% in size
Summary of the method: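 Dosing on CMV-luciferase HEK-293 cells for 24 hr, 37 °C. Luminescence read with SteadyGlo; cytotoxicity measured first as Gly-Phe-AFC protease fluorescence, 25 uM final substrate, 30 min.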
On the % scale 0 is the no-effect control and ±100 the full control effect; potency means the concentration at half of the fitted maximal effect; tags describe the fitted curve by direction and shape.

Row | SMILES | Potency | activity change, negative = cytotoxicity
1 | Cc1cccc(Nc2nc(N)nc(CCl)n2)c1C | inconclusive: 2.82 µM [cytotoxic, partial curve, poor fit] | 
2 | O=c1ccc2ccccc2c2ccccc12 | active: 10 µM | 
3 | CC(CCc1ccccc1)NC(=O)c1ccc(C(=O)NC(C)CCc2ccccc2)cc1 (stereo not given) | inconclusive: 10 µM [cytotoxic, partial curve] | 
4 | CCc1ccc(-c2cc(C(F)(F)F)n3nc(C(=O)Nc4cnn(Cc5ccc(C)cc5)c4)cc3n2)s1 | inconclusive: 31.6 µM [rising, partial curve, poor fit] | 
5 | Cc1nc(C(F)(F)F)c(C(=O)N/N=C(\N)c2ccccn2)s1 | inconclusive: 20 µM [cytotoxic, partial curve] | 
6 | CC(=O)N/N=C/c1cc(C(C)(C)C)cc(/C=N/NC(C)=O)c1O | inconclusive: 3.55 µM [rising, partial curve] | 
7 | Cc1ccccc1C(=O)N1CCN(c2ccc(NC(=O)c3ccco3)cc2Cl)CC1 | inconclusive: 22.4 µM [cytotoxic, single point] | 
8 | Cc1ccc(C(C)C)c(OCc2ccc(C(=O)N/N=C/c3ccc(O)cc3O)cc2)c1 | inconclusive: 0.355 µM [cytotoxic, full curve, poor fit] | 
9 | Cc1cccc(N(CC(O)CON=C2c3ccccc3-c3ccccc32)S(C)(=O)=O)c1 (stereo not given) | inconclusive: 35.5 µM [cytotoxic, single point] | 
10 | O=C(N/N=C/c1cc([N+](=O)[O-])ccc1O)c1c[nH]c2ccccc12 | active: 28.2 µM | 
11 | CCCc1nc(NC2CCCCC2)c(C#N)c2c1COC(C)(C)C2 |  | inactive: 16.2%
12 | N/C(=C\C(=O)c1cc(Cl)ccc1O)C(Cl)(Cl)Cl | inconclusive: 0.631 µM [cytotoxic, full curve, poor fit] | 
13 | O=C(C1CCCCC1)N1CCN(c2ccnc3cc(Cl)ccc23)CC1 | inconclusive: 25.1 µM [cytotoxic, single point] | 
14 | COc1ccc(CNC(=O)Nc2nc(C(N)Cc3ccc(Cl)cc3)cs2)cc1 (stereo not given) | active: 22.4 µM | 
15 | Cc1nc2c(OCc3cccc(Cl)c3)cccn2c1N(C)Cc1cccs1 | inconclusive: 22.4 µM [cytotoxic, single point] | 
16 | O=C(CCCN1C(=O)/C(=C/c2ccccc2Cl)SC1=S)Nc1ccccn1 | inconclusive: 28.2 µM [cytotoxic, single point] | 
17 | O=C1c2cc(Cl)ccc2-c2c(O)cc(Cl)cc21 | inconclusive: 22.4 µM [cytotoxic, single point] | 
18 | CCN(CC)S(=O)(=O)c1cc(NC(=O)C2CCN(c3ncnc4sc(C)c(C)c34)CC2)ccc1Cl | inconclusive: 11.2 µM [cytotoxic, partial curve, poor fit] | 
19 | Cc1nc2c(OCc3ccc(C#N)cc3)cccn2c1N(C)Cc1cccs1 | inconclusive: 25.1 µM [cytotoxic, single point] | 
20 | COc1ccccc1NC(=O)CSc1n[nH]c(-c2ccccn2)n1 | inconclusive: 20 µM [cytotoxic, partial curve, poor fit] | 
21 | NS(=O)(=O)c1ccc(N2N=C(c3ccc(Br)cc3)CC2c2ccc(F)cc2)cc1 (stereo not given) | inconclusive: 31.6 µM [rising, partial curve] | 
22 | Cc1cc(Oc2ccc(Cl)cc2)nc(-c2ccccn2)n1 |  | inactive: 9.12% [at 57.5 µM]
23 | C/C(=C\C(=O)c1ccc(Br)cc1)NNC(=O)c1ccc(O)cc1 | active: 12.6 µM | 
24 | CCOc1cc(/C=N\NC(=O)c2ccc(NC(=O)CC)cc2)ccc1OC(=O)c1ccccc1 | inconclusive: 12.6 µM [cytotoxic, partial curve, poor fit] | 

Row | SMILES | Potency | activity change, negative = cytotoxicity
25 | COC(=O)Cc1[nH]n(-c2nc3ccccc3s2)c(=O)c1C(C)=Nc1ccc(C)cc1 | inconclusive: 11.2 µM [cytotoxic, partial curve] | 
26 | CCN(CC)S(=O)(=O)c1cccc(NC(=O)Nc2cccc(C(F)(F)F)c2)c1 | inconclusive: 3.16 µM [cytotoxic, single point] | 
27 | Fc1ccc2[nH]c3c(N4CCc5ccccc5C4)ncnc3c2c1 | inconclusive: 11.2 µM [cytotoxic, partial curve, poor fit] | 
28 | CN(C)CCC(c1ccc(Br)cc1)c1ccccn1 (stereo not given) |  | inactive: -13.2% [at 57.5 µM]
29 | Cc1nnc(N/N=C/c2ccccn2)[nH]c1=O | inconclusive: 1.58 µM [cytotoxic, full curve] | 
30 | Cc1ccc(S(=O)(=O)/C(=C/Cl)NC(=O)c2ccccc2)cc1 | active: 17.8 µM | 
31 | CCCCNC(=NCc1cccc(C(F)(F)F)c1)Nc1ccccc1 |  | inactive: -13.9%
32 | S=C(Nc1cc(Cl)ccc1Oc1ccccc1)N1CCN(c2ccccn2)CC1 | active: 25.1 µM | 
33 | O=c1nc(N/N=C/c2ccccn2)cn[nH]1 | active: 7.94 µM | 
34 | CCc1ccc(NC(=O)COc2ccc(/C=C(/C#N)c3nc4ccccc4[nH]3)cc2OC)cc1 | inconclusive: 31.6 µM [rising, partial curve] | 
35 | CC1=CC(C)(C)Nc2ccc(OC(=O)CN3C(=O)c4cccc5cccc(c45)C3=O)cc21 | inconclusive: 22.4 µM [rising, single point] | 
36 | Cc1nc(-c2ccc(C(F)(F)F)cc2)sc1C(=O)NN | inconclusive: 10 µM [cytotoxic, partial curve, poor fit] | 
37 | O=C(/C=C/NNC(=O)c1ccccc1)c1ccc([N+](=O)[O-])cc1 | active: 12.6 µM | 
38 | Cc1c(Cl)c([N+](=O)[O-])nn1Cc1ccc(C(=O)N/N=C\c2cc(Cl)ccc2O)o1 | inconclusive: 0.891 µM [cytotoxic, full curve, poor fit] | 
39 | NC(Cc1ccc(C(F)(F)F)cc1)c1csc(Nc2ccc(C(=O)NCc3ccco3)cn2)n1 (stereo not given) | inconclusive: 1.41 µM [cytotoxic, full curve, poor fit] | 
40 | Cc1nnc(SC(C)C(=O)Nc2ccc(Cl)cn2)n1Cc1ccccc1 (stereo not given) |  | inactive: -1.27% [at 57.5 µM]
41 | CCN(CC)CCNC1=NCCn2c1cc1cc(OC)ccc12 |  | inactive: -15.7%
42 | CN(C)c1ccc(NC(=O)Nc2nc(C(N)C3CCCCC3)cs2)cc1 (stereo not given) | inconclusive: 8.91 µM [cytotoxic, partial curve, poor fit] | 
43 | CCc1ccc(-c2csc(NC(=O)C3CC(=O)N(c4ccc5c(c4)OCCO5)C3)n2)cc1 (stereo not given) | inconclusive: 10 µM [cytotoxic, partial curve, poor fit] | 
44 | O=C(N/N=C/c1cc(Cl)cc([N+](=O)[O-])c1O)c1cccc(S(=O)(=O)N2CCOCC2)c1 |  | inactive: -29.7%
45 | CN(C)CCCN(C(=O)c1ccc2c(c1)CCCC2)c1nc2cc3c(cc2s1)OCO3 | inconclusive: 20 µM [cytotoxic, single point] | 
46 | CC(C)CC(NC(=O)c1ccc(Cl)cc1)C(=O)OCC(=O)c1ccc2c(c1)NC(=O)CO2 (stereo not given) | active: 14.1 µM | 
47 | CC(=O)NC(c1ccco1)c1ccc2cccnc2c1O (stereo not given) |  | inactive: -22.3%
48 | C/C(=N\NC(=O)c1cc(-c2cccnc2)nc2ccccc12)c1ccc(O)cc1O |  | inactive: 8.79% [at 57.5 µM]

Row | SMILES | Potency | activity change, negative = cytotoxicity
49 | CC1CCN(Cc2c(C(=O)N/N=C/c3cc(Br)ccc3O)nnn2-c2nonc2N)CC1 |  | inactive: -14%
50 | Cc1nc2ccccc2n1/N=C/c1ccc([N+](=O)[O-])o1 | inconclusive: 25.1 µM [cytotoxic, partial curve, poor fit] | 
51 | CCOC(=O)N1CCN(c2ccnc3cc(Cl)ccc23)CC1 |  | inactive: 13.1%
52 | OCCN1CCN(Cc2cc(Cl)c3cccnc3c2O)CC1 |  | inactive: -25.4% [at 57.5 µM]
53 | COc1ccc(OCCNC(=O)C2(C)CCN2Cc2ccc3ccccc3c2)cc1 (stereo not given) |  | inactive: -24.8% [at 57.5 µM]
54 | Cc1cccn2c(=O)c(C(=O)NC3CC(C)CC(C)(C)C3)c(O)nc12 (stereo not given) | inconclusive: 25.1 µM [cytotoxic, partial curve, poor fit] | 
55 | Cc1cccc(/C=C/C(=O)c2ccc([N+](=O)[O-])o2)c1 | active: 3.16 µM | 
56 | O=C(N/N=C/c1ccc([N+](=O)[O-])s1)c1ccccc1Br | active: 20 µM | 
57 | O=C(COC(=O)c1cc([N+](=O)[O-])ccc1N1CCOCC1)Nc1ccc(Cl)cn1 | active: 14.1 µM | 
58 | CCOc1ccc(C(=O)Nc2ccc(Cc3ccncc3)cc2)cc1Br |  | inactive: -12.6% [at 57.5 µM]
59 | CC(=O)Oc1ccc(Nc2ccccc2)cc1 | inconclusive: 2.82 µM [cytotoxic, partial curve, poor fit] | 
60 | Cc1cc(NC(c2cccnc2)c2ccc3cccnc3c2O)no1 (stereo not given) | inconclusive: 3.16 µM [cytotoxic, full curve] | 
61 | O=C(Nc1cccnc1)C1Cc2c(-c3ccc4c(c3)OCO4)ccnc2O1 (stereo not given) |  | inactive: -12.2%
62 | CCOC(=O)c1c(C)nn(-c2ccc(NC(=O)c3cccs3)cc2)c1C | inconclusive: 22.4 µM [cytotoxic, single point] | 
63 | CN1CCN(c2ccccc2NC(=O)c2ccc(-c3ccc(Cl)c(Cl)c3)o2)CC1 | inconclusive: 20 µM [cytotoxic, single point] | 
64 | Cc1ccc(NC(=O)COc2ccc(Br)cc2CO)cc1S(=O)(=O)N1CCOCC1 |  | inactive: -29.7% [at 57.5 µM]
65 | CC(=O)N1c2ccc(S(=O)(=O)N3CCC(C(=O)N4CCN(c5ccc(Cl)cc5)CC4)CC3)cc2CC1C (stereo not given) |  | inactive: -27.4% [at 57.5 µM]
66 | CCCCN1C(=O)/C(=C2/Sc3ccccc3N2C)S/C1=N\c1ncn[nH]1 | inconclusive: 39.8 µM [rising, single point] | 
67 | COc1cc(NC(=O)N2CCc3nc(Nc4cc(Cl)cc(Cl)c4)ncc3C2)cc(OC)c1OC | inconclusive: 3.16 µM [cytotoxic, single point] | 
68 | O=S(=O)(Nc1cccc2cccnc12)c1ccccc1 |  | inactive: -17.9%
69 | CCc1ccc(C(=O)NNC(=O)C2CCN(c3ncnc4sc(C)c(C)c34)CC2)cc1 |  | inactive: -11%
70 | O=C(CSc1nc(Nc2ccccc2)nc(N2CCOCC2)n1)Nc1cc(Cl)ccc1O | inconclusive: 39.8 µM [cytotoxic, single point] | 
